{"source": "the antibiotic and cytotoxicity screens of Wong et al. (2023)", "note": "Some of the results follow.", "data": [{"system": "HSkMC (human skeletal muscle cells)", "test": "cytotoxicity call (relative viability < 0.9)", "details": "10 µM", "values": [{"smiles": "C[C@@H]1CN([C@H](C)CO)C(=O)c2c(c3ccccc3n2C)-c2ccccc2CO[C@H]1CN(C)Cc1cccc(C(F)(F)F)c1", "cytotoxicity call": "inactive"}, {"smiles": "COc1cccc(C#Cc2ccc([C@H]3[C@@H](CO)N4C(=O)CN(S(=O)(=O)c5ccccc5C)C[C@@H]34)cc2)c1", "cytotoxicity call": "inactive"}, {"smiles": "Cc1ccc(S(=O)(=O)N(C)C[C@H]2Oc3ccc(NC(=O)Nc4ccc(C(F)(F)F)cc4)cc3C(=O)N([C@H](C)CO)C[C@H]2C)cc1", "cytotoxicity call": "active"}, {"smiles": "C[C@@H]1CN([C@H](C)CO)C(=O)c2cc(C#CCN(C)C)cnc2O[C@H]1CN(C)C(=O)CN1CCOCC1", "cytotoxicity call": "inactive"}, {"smiles": "C[C@H]1CN([C@@H](C)CO)C(=O)c2cccc(NC(=O)c3cnccn3)c2O[C@@H]1CN(C)S(=O)(=O)c1ccc(F)cc1", "cytotoxicity call": "inactive"}, {"smiles": "C[C@@H]1CN([C@@H](C)CO)C(=O)c2cc(NC(=O)C3CC3)ccc2O[C@@H]1CN(C)Cc1ccc(Oc2ccccc2)cc1", "cytotoxicity call": "inactive"}, {"smiles": "CCN(CC)CCOC(=O)C(c1ccccc1)C1CCCCC1.Cl", "note": "(stereo not given)", "cytotoxicity call": "inactive"}, {"smiles": "CS(=O)(=O)N1[C@@H]2c3ccc(-c4ccccc4)c(=O)n3C[C@H]1[C@H](CO)[C@H]2C(=O)NCC1CC1", "cytotoxicity call": "inactive"}, {"smiles": "Cc1noc(C)c1CO", "cytotoxicity call": "inactive"}, {"smiles": "CC[C@@H](N)c1ncnn1CC", "cytotoxicity call": "inactive"}, {"smiles": "O=C(CN1CCOCC1)N[C@@H]1CC[C@@H](CCNC(=O)C2CCC2)O[C@@H]1CO", "cytotoxicity call": "inactive"}, {"smiles": "C[C@H]1NC(=O)N[C@@H]1CCCCC(=O)O", "cytotoxicity call": "inactive"}, {"smiles": "COc1ccc(S(=O)(=O)Nc2ccc3c(c2)CC(=O)N([C@@H](C)CO)C[C@H](C)[C@@H](CN(C)S(=O)(=O)c2ccc(F)cc2)O3)cc1", "cytotoxicity call": "inactive"}, {"smiles": "C[C@@H]1CN([C@@H](C)CO)C(=O)Cc2cc(NS(C)(=O)=O)ccc2O[C@@H]1CN(C)C", "cytotoxicity call": "inactive"}, {"smiles": "CC(C)NC(=O)N(C)C[C@H]1Oc2cc(C#Cc3ccccn3)ccc2S(=O)(=O)N([C@@H](C)CO)C[C@H]1C", "cytotoxicity call": "inactive"}, {"smiles": "C[C@H](CO)N1C[C@H](C)[C@@H](CN(C)S(=O)(=O)c2ccccc2F)Oc2ncc(C#Cc3cccnc3)cc2C1=O", "cytotoxicity call": "inactive"}, {"smiles": "COc1ccc2c3c(n(c2c1)C)[C@H](CO)N(CC1CCOCC1)C[C@]13CCN(CC1)C(=O)Cc1cccnc1", "cytotoxicity call": "inactive"}, {"smiles": "CC/N=C1\\S[C@H](C(N)=O)CC(=O)N1CC", "cytotoxicity call": "inactive"}, {"smiles": "Cc1noc(C)c1NC(=O)Nc1ccc2c(c1)CC(=O)N([C@@H](C)CO)C[C@H](C)[C@@H](CN(C)S(=O)(=O)c1c(C)noc1C)O2", "cytotoxicity call": "inactive"}, {"smiles": "C[C@@H]1CN([C@@H](C)CO)C(=O)c2cc(NC(=O)Nc3ccc4c(c3)OCO4)ccc2O[C@@H](C)CCCCO[C@H]1CN(C)Cc1ccc(Cl)c(Cl)c1", "cytotoxicity call": "inactive"}, {"smiles": "Cc1noc(C)c1NC(=O)Nc1ccc2c(c1)C(=O)N([C@@H](C)CO)C[C@H](C)[C@H](CN(C)C(=O)NC1CCCCC1)OCCCC[C@H](C)O2", "cytotoxicity call": "inactive"}, {"smiles": "NC(=O)CCN1C(=O)[C@@H]2[C@@H](C1=O)[C@@H]1C=C[C@@H]2C1", "cytotoxicity call": "inactive"}, {"smiles": "COc1ccc(S(=O)(=O)N(C)C[C@@H]2OCCCC[C@@H](C)Oc3ccc(NC(=O)Nc4ccc(C(F)(F)F)cc4)cc3C(=O)N([C@@H](C)CO)C[C@H]2C)cc1", "cytotoxicity call": "inactive"}, {"smiles": "CC(C)(C)c1ccc(S(=O)(=O)Nc2nccnc2-c2ccc(CNCc3ccc4c(c3)OCO4)cc2)cc1", "cytotoxicity call": "inactive"}, {"smiles": "O=C(O)C=Cc1ccc(Cn2ccnc2)cc1", "cytotoxicity call": "inactive"}, {"smiles": "C[C@@H]1CCCCO[C@H](CN(C)Cc2ccc3c(c2)OCO3)[C@@H](C)CN([C@H](C)CO)C(=O)c2cc(NC(=O)Nc3ccc(F)cc3)ccc2O1", "cytotoxicity call": "inactive"}, {"smiles": "O=C(C[C@@H]1C[C@H]2c3cc(NC(=O)NC4CCCC4)ccc3O[C@H]2[C@H](CO)O1)NCc1ccc(Oc2ccccc2)cc1", "cytotoxicity call": "inactive"}, {"smiles": "COc1ccc(S(=O)(=O)Nc2ccc3c(c2)C(=O)N([C@@H](C)CO)C[C@H](C)[C@@H](CN(C)C(=O)Nc2c(C)noc2C)OCCCC[C@@H](C)O3)cc1", "cytotoxicity call": "inactive"}, {"smiles": "C=CCC[C@H](Cc1ccc(F)cc1)C(=O)OC[C@@H](NC(=O)[C@@H](CC=C)CC(=O)N(CCO)Cc1ccccc1)c1ccccc1", "cytotoxicity call": "active"}, {"smiles": "COc1ccc(NC(=O)N(C)C[C@H]2Oc3ncc(C#CCN(C)C)cc3C(=O)N([C@H](C)CO)C[C@@H]2C)cc1", "cytotoxicity call": "inactive"}, {"smiles": "Cc1ccc(S(=O)(=O)Nc2ccc3c(c2)CC(=O)N([C@@H](C)CO)C[C@@H](C)[C@@H](CN(C)S(=O)(=O)c2cccs2)O3)cc1", "cytotoxicity call": "inactive"}, {"smiles": "C[C@@H]1CN([C@@H](C)CO)C(=O)c2cccc(NS(=O)(=O)c3ccc(F)cc3)c2O[C@@H]1CN(C)Cc1ccncc1", "cytotoxicity call": "inactive"}, {"smiles": "COc1ccc(CN(C)C[C@H]2OCCCC[C@H](C)Oc3ccc(NC(=O)C4CCCCC4)cc3C(=O)N([C@H](C)CO)C[C@H]2C)cc1", "cytotoxicity call": "inactive"}, {"smiles": "O=C(C[C@@H]1CC[C@@H]2[C@H](COC[C@@H](O)CN2S(=O)(=O)c2ccccc2Cl)O1)NCc1ccccc1Cl", "cytotoxicity call": "inactive"}, {"smiles": "C[C@@H]1CN([C@@H](C)CO)C(=O)CCCn2cc(nn2)CO[C@H]1CN(C)C(=O)Nc1ccc(N2CCCCC2)cc1", "cytotoxicity call": "inactive"}, {"smiles": "COc1cc2c(cc1OC)C([C@H](C(=O)N(CCc1ccc(OC)c(OC)c1OC)CCc1ccc(OC)c(OC)c1OC)c1ccccc1)=NCC2", "cytotoxicity call": "inactive"}, {"smiles": "COc1ccc(CN(C)C[C@H]2Oc3ccc(NC(=O)Cn4cnnn4)cc3CC(=O)N([C@H](C)CO)C[C@@H]2C)cc1", "cytotoxicity call": "inactive"}, {"smiles": "C[C@H](CO)N1C[C@H](C)[C@@H](CN(C)S(=O)(=O)c2ccccc2)OCCCC[C@H](C)Oc2ccc(NC(=O)c3ccccc3)cc2C1=O", "cytotoxicity call": "inactive"}, {"smiles": "C[C@H](CO)N1C[C@H](C)[C@H](CN(C)Cc2ccc(C(F)(F)F)cc2)Oc2c(NC(=O)Nc3ccc(F)cc3)cccc2C1=O", "cytotoxicity call": "inactive"}, {"smiles": "COCC(=O)N1CC[C@]2(CC(C(=O)NCc3cnc(C)cn3)=NO2)C1", "cytotoxicity call": "inactive"}]}]}
